# Experimental data reported in the supplement of paper PMC12423691.
# Some of the results follow. Binding of human transcription factors and regulators to the viral nucleoprotein by AlphaScreen, crude cell-free proteins, amounts not normalised, one pass. Fold of the Venus control; higher = more signal. No active / inactive call. Single-pass screen; sequences are the whole Swiss-Prot entries looked up by name.
# B1: GLIS1, Q8NBF1 (protein)
# chain: MAEARTSLSAHCRGPLATGLHPDLDLPGRSLATPAPSCYLLGSEPSSGLGLQPETHLPEGSLKRCCVLGLPPTSPASSSPCASSDVTSIIRSSQTSLVTCVNGLRSPPLTGDLGGPSKRARPGPASTDSHEGSLQLEACRKASFLKQEPADEFSELFGPHQQGLPPPYPLSQLPPGPSLGGLGLGLAGRVVAGRQACRWVDCCAAYEQQEELVRHIEKSHIDQRKGEDFTCFWAGCVRRYKPFNARYKLLIHMRVHSGEKPNKCMFEGCSKAFSRLENLKIHLRSHTGEKPYLCQHPGCQKAFSNSSDRAKHQRTHLDTKPYACQIPGCSKRYTDPSSLRKHVKAHSAKEQQVRKKLHAGPDTEADVLTECLVLQQLHTSTQLAASDGKGGCGLGQELLPGVYPGSITPHNGLASGLLPPAHDVPSRHHPLDATTSSHHHLSPLPMAESTRDGLGPGLLSPIVSPLKGLGPPPLPPSSQSHSPGGQPFPTLPSKPSYPPFQSPPPPPLPSPQGYQGSFHSIQSCFPYGDCYRMAEPAAGGDGLVGETHGFNPLRPNGYHSLSTPLPATGYEALAEASCPTALPQQPSEDVVSSGPEDCGFFPNGAFDHCLGHIPSIYTDT
# B2: NKX2-5, P52952 (protein)
# chain: MFPSPALTPTPFSVKDILNLEQQQRSLAAAGELSARLEATLAPSSCMLAAFKPEAYAGPEAAAPGLPELRAELGRAPSPAKCASAFPAAPAFYPRAYSDPDPAKDPRAEKKELCALQKAVELEKTEADNAERPRARRRRKPRVLFSQAQVYELERRFKQQRYLSAPERDQLASVLKLTSTQVKIWFQNRRYKCKRQRQDQTLELVGLPPPPPPPARRIAVPVLVRDGKPCLGDSAPYAPAYGVGLNPYGYNAYPAYPGYGGAACSPGYSCTAAYPAGPSPAQPATAAANNNFVNFGVGDLNAVQSPGIPQSNSGVSTLHGIRAW
# B3: ATF1, P18846 (protein)
# chain: MEDSHKSTTSETAPQPGSAVQGAHISHIAQQVSSLSESEESQDSSDSIGSSQKAHGILARRPSYRKILKDLSSEDTRGRKGDGENSGVSAAVTSMSVPTPIYQTSSGQYIAIAPNGALQLASPGTDGVQGLQTLTMTNSGSTQQGTTILQYAQTSDGQQILVPSNQVVVQTASGDMQTYQIRTTPSATSLPQTVVMTSPVTLTSQTTKTDDPQLKREIRLMKNREAARECRRKKKEYVKCLENRVAVLENQNKTLIEELKTLKDLYSNKSV
# B4: PHB, P35232 (protein)
# chain: MAAKVFESIGKFGLALAVAGGVVNSALYNVDAGHRAVIFDRFRGVQDIVVGEGTHFLIPWVQKPIIFDCRSRPRNVPVITGSKDLQNVNITLRILFRPVASQLPRIFTSIGEDYDERVLPSITTEILKSVVARFDAGELITQRELVSRQVSDDLTERAATFGLILDDVSLTHLTFGKEFTEAVEAKQVAQQEAERARFVVEKAEQQKKAAIISAEGDSKAAELIANSLATAGDGLIELRKLEAAEDIAYQLSRSRNITYLPAGQSVLLQLPQ
# B5: HSF2, Q03933 (protein)
# chain: MKQSSNVPAFLSKLWTLVEETHTNEFITWSQNGQSFLVLDEQRFAKEILPKYFKHNNMASFVRQLNMYGFRKVVHIDSGIVKQERDGPVEFQHPYFKQGQDDLLENIKRKVSSSKPEENKIRQEDLTKIISSAQKVQIKQETIESRLSELKSENESLWKEVSELRAKHAQQQQVIRKIVQFIVTLVQNNQLVSLKRKRPLLLNTNGAQKKNLFQHIVKEPTDNHHHKVPHSRTEGLKPRERISDDIIIYDVTDDNADEENIPVIPETNEDVISDPSNCSQYPDIVIVEDDNEDEYAPVIQSGEQNEPARESLSSGSDGSSPLMSSAVQLNGSSSLTSEDPVTMMDSILNDNINLLGKVELLDYLDSIDCSLEDFQAMLSGRQFSIDPDLLVDLFTSSVQMNPTDYINNTKSENKGLETTKNNVVQPVSEEGRKSKSKPDKQLIQYTAFPLLAFLDGNPASSVEQASTTASSEVLSSVDKPIEVDELLDSSLDPEPTQSKLVRLEPLTEAEASEATLFYLCELAPAPLDSDMPLLDS
# B6: LZTR1, Q8N653 (protein)
# chain: MAGPGSTGGQIGAAALAGGARSKVAPSVDFDHSCSDSVEYLTLNFGPFETVHRWRRLPPCDEFVGARRSKHTVVAYKDAIYVFGGDNGKTMLNDLLRFDVKDCSWCRAFTTGTPPAPRYHHSAVVYGSSMFVFGGYTGDIYSNSNLKNKNDLFEYKFATGQWTEWKIEGRLPVARSAHGATVYSDKLWIFAGYDGNARLNDMWTIGLQDRELTCWEEVAQSGEIPPSCCNFPVAVCRDKMFVFSGQSGAKITNNLFQFEFKDKTWTRIPTEHLLRGSPPPPQRRYGHTMVAFDRHLYVFGGAADNTLPNELHCYDVDFQTWEVVQPSSDSEVGGAEVPERACASEEVPTLTYEERVGFKKSRDVFGLDFGTTSAKQPTQPASELPSGRLFHAAAVISDAMYIFGGTVDNNIRSGEMYRFQFSCYPKCTLHEDYGRLWESRQFCDVEFVLGEKEECVQGHVAIVTARSRWLRRKITQARERLAQKLEQEAAPVPREAPGVAAGGARPPLLHVAIREAEARPFEVLMQFLYTDKIKYPRKGHVEDVLLIMDVYKLALSFQLCRLEQLCRQYIEASVDLQNVLVVCESAARLQLSQLKEHCLNFVVKESHFNQVIMMKEFERLSSPLIVEIVRRKQQPPPRTPLDQPVDIGTSLIQDMKAYLEGAGAEFCDITLLLDGHPRPAHKAILAARSSYFEAMFRSFMPEDGQVNISIGEMVPSRQAFESMLRYIYYGEVNMPPEDSLYLFAAPYYYGFYNNRLQAYCKQNLEMNVTVQNVLQILEAADKTQALDMKRHCLHIIVHQFTKVSKLPTLRSLSQQLLLDIIDSLASHISDKQCAELGADI
# B7: FOXP3, Q9BZS1 (protein)
# chain: MPNPRPGKPSAPSLALGPSPGASPSWRAAPKASDLLGARGPGGTFQGRDLRGGAHASSSSLNPMPPSQLQLPTLPLVMVAPSGARLGPLPHLQALLQDRPHFMHQLSTVDAHARTPVLQVHPLESPAMISLTPPTTATGVFSLKARPGLPPGINVASLEWVSREPALLCTFPNPSAPRKDSTLSAVPQSSYPLLANGVCKWPGCEKVFEEPEDFLKHCQADHLLDEKGRAQCLLQREMVQSLEQQLVLEKEKLSAMQAHLAGKMALTKASSVASSDKGSCCIVAAGSQGPVVPAWSGPREAPDSLFAVRRHLWGSHGNSTFPEFLHNMDYFKFHNMRPPFTYATLIRWAILEAPEKQRTLNEIYHWFTRMFAFFRNHPATWKNAIRHNLSLHKCFVRVESEKGAVWTVDELEFRKKRSQRPSRCSNPTPGP
# Molecular target: nucleoprotein N of Crimean-Congo hemorrhagic fever virus
# Assay: AlphaScreen luminescence signal relative to Venus negative control (fold); higher = stronger binding to CCHFV N
# Experimental: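 AlphaScreen binding of cell-free made, FLAG-GST-tagged human transcription factors and regulators (crude translation products) to biotinylated N protein; signal as fold of the FLAG-GST-Venus control. One pass.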
row,Binder,AlphaScreen luminescence signal
1,B1,2.51
2,B2,2.79
3,B3,1.67
4,B4,2.79
5,B5,1.95
6,B6,3.44
7,B7,1.86
